Binding signal data for 31 molecules are collected here from PMC9911399, “Two distinct binding modes provide the RNA-binding protein RbFox with extraordinary sequence specificity”.

The chains are these.
T1: RBFOX1 RRM (Homo sapiens, UniProt Q9NWB1 109-208)
T1 sequence: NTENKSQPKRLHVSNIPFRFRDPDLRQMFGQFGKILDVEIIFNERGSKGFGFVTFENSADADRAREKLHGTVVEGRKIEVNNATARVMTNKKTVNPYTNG

B1: CAGAUGU (DNA:RNA)
RNA: GGGAGACCGGAAUUCAGAUUGUCCCAGAUGUUUAAAUCCCGUCGUAGCCACCA
DNA 1: CAATCTGAATTCCGGTCTCCC
DNA 2: TGGTGGCTACGACGGGATT
B2: GUCGUAC (DNA:RNA)
RNA: B1 RNA with C25G, A26U, G27C, A28G, G30A, U31C
DNA 1: CAATCTGAATTCCGGTCTCCC
DNA 2: TGGTGGCTACGACGGGATT
B3: ACAUAGU (DNA:RNA)
RNA: B1 RNA with C25A, A26C, G27A, A28U, U29A
DNA 1: CAATCTGAATTCCGGTCTCCC
DNA 2: TGGTGGCTACGACGGGATT
B4: UUAUUAC (DNA:RNA)
RNA: B1 RNA with C25U, A26U, G27A, A28U, G30A, U31C
DNA 1: CAATCTGAATTCCGGTCTCCC
DNA 2: TGGTGGCTACGACGGGATT
B5: CACGUUU (DNA:RNA)
RNA: B1 RNA with G27C, A28G, G30U
DNA 1: CAATCTGAATTCCGGTCTCCC
DNA 2: TGGTGGCTACGACGGGATT
B6: UUCUAGU (DNA:RNA)
RNA: B1 RNA with C25U, A26U, G27C, A28U, U29A
DNA 1: CAATCTGAATTCCGGTCTCCC
DNA 2: TGGTGGCTACGACGGGATT
B7: AGUCAAC (DNA:RNA)
RNA: GGGAGACCGGAAUUCAGAUUGUCCAGUCAACUUAAAUCCCGUCGUAGCCACCA
DNA 1: CAATCTGAATTCCGGTCTCCC
DNA 2: TGGTGGCTACGACGGGATT
B8: CCUCUCA (DNA:RNA)
RNA: B7 RNA with A25C, G26C, A29U, A30C, C31A
DNA 1: CAATCTGAATTCCGGTCTCCC
DNA 2: TGGTGGCTACGACGGGATT
B9: CGGAACG (DNA:RNA)
RNA: B1 RNA with A26G, U29A, G30C, U31G
DNA 1: CAATCTGAATTCCGGTCTCCC
DNA 2: TGGTGGCTACGACGGGATT
B10: CGACCUG (DNA:RNA)
RNA: B7 RNA with A25C, U27A, A29C, A30U, C31G
DNA 1: CAATCTGAATTCCGGTCTCCC
DNA 2: TGGTGGCTACGACGGGATT
B11: CUGGGAG (DNA:RNA)
RNA: B1 RNA with A26U, A28G, U29G, G30A, U31G
DNA 1: CAATCTGAATTCCGGTCTCCC
DNA 2: TGGTGGCTACGACGGGATT
B12: GCUUCGU (DNA:RNA)
RNA: B1 RNA with C25G, A26C, G27U, A28U, U29C
DNA 1: CAATCTGAATTCCGGTCTCCC
DNA 2: TGGTGGCTACGACGGGATT
B13: CUGACGA (DNA:RNA)
RNA: B1 RNA with A26U, U29C, U31A
DNA 1: CAATCTGAATTCCGGTCTCCC
DNA 2: TGGTGGCTACGACGGGATT
B14: AAAAAAC (DNA:RNA)
RNA: B7 RNA with G26A, U27A, C28A
DNA 1: CAATCTGAATTCCGGTCTCCC
DNA 2: TGGTGGCTACGACGGGATT
B15: AGGAAUA (DNA:RNA)
RNA: B7 RNA with U27G, C28A, A30U, C31A
DNA 1: CAATCTGAATTCCGGTCTCCC
DNA 2: TGGTGGCTACGACGGGATT
B16: AAUGCGU (DNA:RNA)
RNA: B1 RNA with C25A, G27U, A28G, U29C
DNA 1: CAATCTGAATTCCGGTCTCCC
DNA 2: TGGTGGCTACGACGGGATT
B17: GUGACCU (DNA:RNA)
RNA: B1 RNA with C25G, A26U, U29C, G30C
DNA 1: CAATCTGAATTCCGGTCTCCC
DNA 2: TGGTGGCTACGACGGGATT
B18: GGAGGGG (DNA:RNA)
RNA: B7 RNA with A25G, U27A, C28G, A29G, A30G, C31G
DNA 1: CAATCTGAATTCCGGTCTCCC
DNA 2: TGGTGGCTACGACGGGATT
B19: CGACAUG (DNA:RNA)
RNA: B7 RNA with A25C, U27A, A30U, C31G
DNA 1: CAATCTGAATTCCGGTCTCCC
DNA 2: TGGTGGCTACGACGGGATT
B20: AAACCCA (DNA:RNA)
RNA: B7 RNA with G26A, U27A, A29C, A30C, C31A
DNA 1: CAATCTGAATTCCGGTCTCCC
DNA 2: TGGTGGCTACGACGGGATT
B21: UUGAAGU (DNA:RNA)
RNA: B1 RNA with C25U, A26U, U29A
DNA 1: CAATCTGAATTCCGGTCTCCC
DNA 2: TGGTGGCTACGACGGGATT
B22: CGUGGUG (DNA:RNA)
RNA: B7 RNA with A25C, C28G, A29G, A30U, C31G
DNA 1: CAATCTGAATTCCGGTCTCCC
DNA 2: TGGTGGCTACGACGGGATT
B23: GGCCUAG (DNA:RNA)
RNA: B7 RNA with A25G, U27C, A29U, C31G
DNA 1: CAATCTGAATTCCGGTCTCCC
DNA 2: TGGTGGCTACGACGGGATT
B24: AGUGGUA (DNA:RNA)
RNA: B7 RNA with C28G, A29G, A30U, C31A
DNA 1: CAATCTGAATTCCGGTCTCCC
DNA 2: TGGTGGCTACGACGGGATT
B25: AGAGGCA (DNA:RNA)
RNA: B7 RNA with U27A, C28G, A29G, A30C, C31A
DNA 1: CAATCTGAATTCCGGTCTCCC
DNA 2: TGGTGGCTACGACGGGATT
B26: AAGAACG (DNA:RNA)
RNA: B1 RNA with C25A, U29A, G30C, U31G
DNA 1: CAATCTGAATTCCGGTCTCCC
DNA 2: TGGTGGCTACGACGGGATT
B27: AUCUGGA (DNA:RNA)
RNA: B7 RNA with G26U, U27C, C28U, A29G, A30G, C31A
DNA 1: CAATCTGAATTCCGGTCTCCC
DNA 2: TGGTGGCTACGACGGGATT
B28: GGUGCCA (DNA:RNA)
RNA: B7 RNA with A25G, C28G, A29C, A30C, C31A
DNA 1: CAATCTGAATTCCGGTCTCCC
DNA 2: TGGTGGCTACGACGGGATT
B29: UACCUUC (DNA:RNA)
RNA: B7 RNA with A25U, G26A, U27C, A29U, A30U
DNA 1: CAATCTGAATTCCGGTCTCCC
DNA 2: TGGTGGCTACGACGGGATT
B30: CUUGGCA (DNA:RNA)
RNA: B7 RNA with A25C, G26U, C28G, A29G, A30C, C31A
DNA 1: CAATCTGAATTCCGGTCTCCC
DNA 2: TGGTGGCTACGACGGGATT
B31: CACCCGA (DNA:RNA)
RNA: B1 RNA with G27C, A28C, U29C, U31A
DNA 1: CAATCTGAATTCCGGTCTCCC
DNA 2: TGGTGGCTACGACGGGATT

Where a chain is given by its changes, count along the chain named. Some of the results follow.

For this assay, the target named is T1, RBFOX1 RRM. Nature of the assay: EMSA; HiTS-Eq, 1 nM pool, 10 min; buffer printed only for the single-RNA assays: 10 mM Tris pH 7.5, 150 mM NaCl, 3.4 mM EDTA, 0.001% NP-40, 30 C. As to conditions: tags: His6 N-terminal (pET28a); label: 5' 32P. The method, boiled down: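 Purified RbFox RRM, wild type or mutant, was incubated for 10 min in 50 µL with 1 nM of a 5′-radiolabelled RNA pool carrying 7 randomized nucleotides, whose flanks were annealed to DNA oligonucleotides, over a series of increasing protein concentrations. Unbound RNA was resolved on 8% native PAGE, cut out, reverse-transcribed, barcoded by PCR and sequenced on an Illumina HiSeq 2500. Relative association constants were derived from changes in read counts for each RNA species versus the control reaction and normalised to the cognate motif.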
In general terms: In EMSA bound probe runs differently from free probe, usually more slowly.
As for B1, the binding signal is 0.00845 KA relative to UGCAUGU. In the case of B2, the binding signal is 0.0102 KA relative to UGCAUGU. As for B3, the binding signal was 0.00187 KA relative to UGCAUGU.

In the case of B4, the binding signal is 0.00462 KA relative to UGCAUGU. B5: the binding signal was 0.00574 KA relative to UGCAUGU.

Consider B6, for which the binding signal is 0.00949 KA relative to UGCAUGU. Turning to B7, the binding signal was 0.00444 KA relative to UGCAUGU. On to B8, for which the binding signal is 0.00314 KA relative to UGCAUGU. The result for B9 reads 0.0344 KA relative to UGCAUGU; that for B10, 0.00886 KA relative to UGCAUGU; that for B11, 0.0142 KA relative to UGCAUGU. B12: the binding signal was 0.0175 KA relative to UGCAUGU. B13: the binding signal was 0.0142 KA relative to UGCAUGU. Regarding B14, the binding signal is 0.00018 KA relative to UGCAUGU.

Take B15: the binding signal was 0.0109 KA relative to UGCAUGU. The value for B16 was 0.00977 KA relative to UGCAUGU. For the molecule B17, the binding signal was 0.0126 KA relative to UGCAUGU.

B18: the binding signal is 0.0168 KA relative to UGCAUGU.

Regarding B19, the binding signal was 0.0148 KA relative to UGCAUGU. Take B20: the binding signal was 0.00147 KA relative to UGCAUGU. Turning to B21, the binding signal is 0.015 KA relative to UGCAUGU. Regarding B22, the binding signal is 0.0193 KA relative to UGCAUGU. Take B23: the binding signal was 0.00388 KA relative to UGCAUGU. Consider B24, for which the binding signal was 0.0144 KA relative to UGCAUGU. Take B25: the binding signal is 0.0128 KA relative to UGCAUGU. The result for B26 reads 0.00869 KA relative to UGCAUGU. Turning to B27, the binding signal is 0.00328 KA relative to UGCAUGU. Consider B28, for which the binding signal was 0.0125 KA relative to UGCAUGU. The value for B29 was 0.00895 KA relative to UGCAUGU; that for B30 was 0.0156 KA relative to UGCAUGU.

Regarding B31, the binding signal is 0.00311 KA relative to UGCAUGU.
